# Laboratory results from article PMC12136788.
# The other results are listed elsewhere or left out.
# B1: chr22:38111494:38112305:-|three_prime_utr|ENSG00000184381|control|control|control (ssRNA)
# RNA: GGGAGUUCUACAGUCCGACGAUCAGGCCAAGCCCAGCCACUGCCCUCCCGGGCAGAUCUGGGCCCAGGCACCUCUGAGUCCAUAGACCAGGCCUGGGAGAAUGCCAAGCUGCCUGCCCGAGGCUGGUCCUGAAGGCCUGUCUCCAACAGAGGAUUGAGCAUCA
# B2: chr11:2944997:2945113:-|3pUTR|ENSG00000205531|unk|total|mutant (ssRNA)
# RNA: GGGAGUUCUACAGUCCGACGAUCCUGUGCCGAGCCGGGCCCUGUUCUCCUCCGGAUGUUGCUUCUUGAUUUUUUUUUUUUUUCCGGGGUGGGUCAGGGUUGUGACACACCAGCCCAGGUGAGAGCUGCUGCGGGUCACCUCAUCAACAGAGGAUUGAGCAUCA
# B3: chr2:46903092:46903222:-|3pUTR|ENSG00000180398|msi1|total|mutant (ssRNA)
# RNA: GGGAGUUCUACAGUCCGACGAUCAAGCAGAAACCCCUGAUAAACUGAUCAGAUCUCAUGAGACUUAUUCACUGUCACGAGAACCGCACGGGAAAGACUGGCCCCCAUGAUUCAAUUACCUCCCCCUGGGUCUGUCCCACAACACAACAGAGGAUUGAGCAUCA
# B4: chr17:77216858:77216994:+|3pUTR|ENSG00000129657|unk|FALSE|bound_elsewhere (ssRNA)
# RNA: GGGAGUUCUACAGUCCGACGAUCUGUUUCUACCUUUAGUACCUUGCCACUCUUUUAAAACGCUGCUGUCAUUUCCCAUUUCUUAGUACUAAUGAUUCUUUGAUUCUCCCUCUAUUAUGUCUUAAUUCACUUUCCUUCCUAAAUCAACAGAGGAUUGAGCAUCA
# B5: chr3:149084675:149084859:-|CDS|ENSG00000071794|unk|total|mutant (ssRNA)
# RNA: GGGAGUUCUACAGUCCGACGAUCCCAACUUUCUUUCCACGUUUUGAAUUCCAAGAUGUUAUCCCUCCAGAUGACUUUCUAACCCGUGAUGAAGAAGCCGAUUCCGUUUUAUUUGGAAGUUUGAGAGGUCAUGUGGUUGGACUACAACAGAGGAUUGAGCAUCA
# B6: chr10:60791946:60792061:+|CDS|ENSG00000170312|unk|FALSE|unique (ssRNA)
# RNA: GGGAGUUCUACAGUCCGACGAUCGUCAGCUCGUUACUCAACUCCAGUUGACAUUUGGAGUAUAGGCACCAUAUUUGCUGAACUAGCAACUAAGAAACCACUUUUCCAUGGGGAUUCAGAAAUUGAUCAACUCUUCAGGAUUUUCAACAGAGGAUUGAGCAUCA
# B7: chr13:52036708:52036809:-|3pUTR|ENSG00000197168|unk|FALSE|unique (ssRNA)
# RNA: GGGAGUUCUACAGUCCGACGAUCGUAGAACUUUUGAAUAUAGCCAUUAAUAUUUUUACUUUAAAGUUUCUAUUAAGAAAUCUUAGGCCGGGCAGUCUCAUCACUUUGGGAGGCCAAGGCAGGCAGAUCAUGAGGUCAGGAGUUCAACAGAGGAUUGAGCAUCA
# B8: chr6:35118271:35118501:-|CDS|ENSG00000124678|control|control|control (ssRNA)
# RNA: GGGAGUUCUACAGUCCGACGAUCUCAGCGGAUCCAUUUGUUUCUCAAAUGCUGUUUGGUUCUUGGUGUGCAGCGGUCUCUAUUAGACCUUCCUGGAGGCCUUACUCUCAUUGAAGCAGAACUGGCAGAACUGGGCCAAAAGUUCAACAGAGGAUUGAGCAUCA
# B9: chr6:49492913:49492980:+|3pUTR|ENSG00000031691|msi1_unk|FALSE|overlapping (ssRNA)
# RNA: GGGAGUUCUACAGUCCGACGAUCUGUUGAAUAUUUUCUACUGUCAUCAAAACAUAUUCCCAAAAAGUAUUAAAAAGGAACCUUAGCACAUUUAUUUUAUUAAAACAAGAAAACCCAAAAUAUAUAAACCUUUUCUUAUUAUGACAACAGAGGAUUGAGCAUCA
# B10: chr6:121448137:121448244:+|3pUTR|ENSG00000152661|msi1|total|mutant (ssRNA)
# RNA: GGGAGUUCUACAGUCCGACGAUCAUGAGGCUCCGAAAACACAAAGACAUCCGAAUACCCCGGUUCACUGGGGGUGUAUGGGGCCGAUGGGUGGAGAGGGAGGGGAUAAGAGAGGUGCAUGUUGGUAUUUAAAGCCGUGGAUUCCAACAGAGGAUUGAGCAUCA
# B11: chr9:114598126:114598323:+|3pUTR|ENSG00000136888|msi1|total|mutant (ssRNA)
# RNA: GGGAGUUCUACAGUCCGACGAUCUCUUUGUAACCUGUGUGAAGCAGCAGCCAGCCUUAAAGCCGUCCAUUCUUGCUAAUGGUCCGAACAGUGAAUACCCGUGGAAUUGUUUGGGCUGCUUUCCGUUUCUCUUAAUCAAAAUUACAACAGAGGAUUGAGCAUCA
# B12: chr4:125449804:125449905:+|CDS|ENSG00000196159|msi1|total|mutant (ssRNA)
# RNA: GGGAGUUCUACAGUCCGACGAUCAAACAGAUCUUAAAAUACCAAAAUGUCACUGGCUUCAGUAAUGUGAAUAUCAACAGGCACCGUUUUACCGUGACAUCUUCAGAUCGAGGUAAACCUUCCUUAAUCCGUGAGACAACAGUUCAACAGAGGAUUGAGCAUCA
# B13: chr5:52955293:52955406:+|3pUTR|ENSG00000213949|unk|total|mutant (ssRNA)
# RNA: GGGAGUUCUACAGUCCGACGAUCUACCAACCAGUGUGAGCUGACUUCAGCACACCACUGAGACAGAUUACACGACCGACAGACCGACCGACCGACCGACCGACCGACCGACCGACCGACCGACCGAUAUUGACCGAGAACAUGCAACAGAGGAUUGAGCAUCA
# B14: chr2:135782819:135782876:+|CDS|ENSG00000144224|msi1_unk|FALSE|overlapping (ssRNA)
# RNA: GGGAGUUCUACAGUCCGACGAUCGUGAGAAAAAGAGUGCUGGAAAAACGUGGAGACGACUUUAAAAAGGAGGGGAAAAUUUAUAGAUUAAGGACUCAAGAUGAUGGUGAAGAUGAAAACAACACUUGGAAUGGAAAUUCCACUCAACAGAGGAUUGAGCAUCA
# Target: MSI1 full-length (mouse, UniProt Q61474 1-362)
# Chain of UniProt Q61474 (Q61474 whole entry): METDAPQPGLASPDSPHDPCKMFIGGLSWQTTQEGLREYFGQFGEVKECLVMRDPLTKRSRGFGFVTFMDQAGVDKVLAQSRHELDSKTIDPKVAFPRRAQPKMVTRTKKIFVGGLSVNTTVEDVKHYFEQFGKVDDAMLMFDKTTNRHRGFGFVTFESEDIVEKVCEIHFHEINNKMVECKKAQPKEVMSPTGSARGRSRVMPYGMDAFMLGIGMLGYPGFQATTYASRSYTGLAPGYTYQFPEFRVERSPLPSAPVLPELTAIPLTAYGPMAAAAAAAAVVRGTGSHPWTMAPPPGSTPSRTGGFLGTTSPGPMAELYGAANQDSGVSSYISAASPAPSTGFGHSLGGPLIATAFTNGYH
# Test: nsRBNS (natural sequence RNA bind-n-seq); RBNS binding buffer (assumed for nsRBNS): 25 mM Tris pH 7.5, 150 mM KCl, 3 mM MgCl2, 0.01% Triton X-100, 500 ug/ml BSA, 20 U/ml SUPERase-In, 4 C; UNK is unkempt and MSI1 is Musashi-1; names of the RNAs are library labels; protein concentration not given here; high values mean tight binding
row,Binder,binding signal
1,B1,0.624 enrichment R
2,B2,0.872 enrichment R
3,B3,0.532 enrichment R
4,B4,6.66 enrichment R
5,B5,0.369 enrichment R
6,B6,0.331 enrichment R
7,B7,8.92 enrichment R
8,B8,0.403 enrichment R
9,B9,4.32 enrichment R
10,B10,0.949 enrichment R
11,B11,0.47 enrichment R
12,B12,0.198 enrichment R
13,B13,0.369 enrichment R
14,B14,0.82 enrichment R
